Test results taken from PubChem BioAssay AID1745853 (National Center for Advancing Translational Sciences (NCATS), 2022).
This is one part of the list. The main result of the screen is listed elsewhere. These columns were measured beside it and carry no call.

Tests used:
Assay in all cases: Primary Screen for Target Class Profiling of Small Molecule Inhibitors of Methyltransferases
[1] = target: Glycine N-methyltransferase (Homo sapiens) (UniProt Q14749); conditions: purified enzyme, MTase-Glo SAH luminescence; measured here: GNMT inhibition; at 40 µM; stronger effect = lower value
Procedure, shortened: (§1)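 Each enzyme was reacted with SAM and its substrate, with compounds tested once at 40 uM; SAH formed was read by MTase-Glo luminescence.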

[2] = target: Guanidinoacetate N-methyltransferase (Homo sapiens) (UniProt Q14353); conditions: purified enzyme, MTase-Glo SAH luminescence; measured here: GAMT inhibition; at 40 µM; stronger effect = lower value
Procedure, shortened: as §1

[3] = target: Histamine N-methyltransferase (Homo sapiens) (UniProt P50135); conditions: purified enzyme, MTase-Glo SAH luminescence; measured here: HNMT inhibition; at 40 µM; stronger effect = lower value
Procedure, shortened: as §1

[4] = target: Nicotinamide N-methyltransferase (Homo sapiens) (UniProt P40261); conditions: purified enzyme, MTase-Glo SAH luminescence; measured here: NNMT inhibition; at 40 µM; stronger effect = lower value
Procedure, shortened: as §1

[5] = target: Phenylethanolamine N-methyltransferase (Homo sapiens) (UniProt P11086); conditions: purified enzyme, MTase-Glo SAH luminescence; measured here: PNMT inhibition; at 40 µM; stronger effect = lower value
Procedure, shortened: as §1
On the % scale 0 is the no-effect control and ±100 the full control effect.

SMILES | activity change, negative = inhibition [1] | activity change, negative = inhibition [2] | activity change, negative = inhibition [3] | activity change, negative = inhibition [4] | activity change, negative = inhibition [5]
CCc1ccc(N2C(=O)c3cc4ccccc4n3CC2(C)C(=O)NCc2ccccc2OC)cc1 (stereo not given) | 0.035% | 0% | 6.02% | 7% | 1.06%
CC(C)CCNC(=O)C1(C)Cn2nc(C(=O)NCc3ccc(Cl)cc3)cc2C(=O)N1C (stereo not given) | -7.21% | 0.552% | -4.92% | -20.6% | -2.63%
N#Cc1cccc(CN2CCCC2=O)c1 | -2.24% | -1.33% | 0.058% | -0.243% | -15.1%
Cc1ccccc1CN1C(=O)c2cc3ccccc3n2CC1(C)C(=O)NCCC(C)C (stereo not given) | -0.381% | 0.211% | 1.14% | -7.5% | -4.74%
CC(C)CCNC(=O)c1ccc2c(=O)nc3c(-c4ccc(F)cc4)n[nH]n3c2c1 | -5.4% | -0.85% | -2.03% | -10.1% | -8.43%
O=[S+]([O-])(c1cccs1)N1CCN(c2nc3ncccc3o2)CC1 | -5.25% | -7.94% | -2.13% | -11.9% | -5.04%
COc1ccc(CN2C(=O)c3cc(-c4cccs4)nn3CC2(C)C(=O)NC2CCCCCC2)cc1 (stereo not given) | -1.03% | 0.027% | 3.55% | 0.102% | -0.628%
CC(C)(C)CN[C@@H](Cn1cc(F)c(=O)[nH]c1=O)C(=O)O | 0.362% | -0.641% | 1.16% | 2.45% | -0.788%
Cc1ccc(C(=O)Cn2nc3n(C(C)C)c(=O)c4ccc(C(=O)NC5CCCCC5)cc4n3c2=O)c(C)c1 | -6.89% | 3.73% | -0.113% | -0.026% | 1.84%
COCC(=O)NC[C@H]1OC[C@@H](NC(C)C)[C@@H]1O | -2.66% | -3.58% | -3.76% | -8.8% | -3.04%
Cc1cnn(C(C)C(=O)N2CCC3(CCC(=O)N(C4CC4)C3)CC2)c1 (stereo not given) | -0.085% | -2.52% | 1.31% | -3.79% | 0.167%
CCCN1CCN(c2ccc(C(=O)NC3(C(=O)NCC#N)CCCCC3)cc2)CC1 | 3.17% | -7.87% | -5.8% | -19.2% | -12.5%
C[C@H]1Oc2cc(cnc2N)-c2c(nn(C)c2C#N)CN(C)C(=O)c2ccc(F)cc21 | 5.16% | 0.747% | 0.422% | -18.6% | -3.73%
C/C=C(/C)C(=O)O[C@@H]1c2cc(OC)c(OC)c(OC)c2-c2c(cc3c(c2OC)OCO3)C[C@H](C)[C@]1(C)O |  | 14.2% |  | -6.48% | 6.94%
C[C@@]1(c2cc(-c3cncnc3)c(F)cc2F)CCSC(N)=N1 | -4.71% | -1.04% | 2.22% | -13.5% | -6.71%
COc1ccc(OC)c(CCNC(=O)CCc2nnc3n(Cc4ccccc4)c(=O)c4ccccc4n23)c1 | -10.7% | 5.61% | -9.72% | -10.5% | -2.6%
CC(C)Cn1c(=O)c2ccccc2n2c(=O)n(Cc3cccc(Cl)c3)nc12 | 2.05% | 1.14% | 6.49% | 0.059% | 2.46%
O=C(NC1CCCCC1)c1ccc2c(=O)nc3c(-c4cccc(F)c4)n[nH]n3c2c1 | 5.6% | 1.21% | 5.2% | 8.07% | 2.3%
COc1cccc(-c2cc(C(=O)N3CCN(c4ncccn4)CC3)c3cnn(C)c3n2)c1 | -8.72% | -5.11% | -8.07% | -19% | -11.3%
CCc1cnn2c(NCc3ccc[n+]([O-])c3)cc(N3CCCC[C@H]3CCO)nc12 |  | 3.93% |  | -21.1% | 1.97%
C=C1CC23CC1CCC2C12OC(=O)C(C)(C(O)C(O)C1O)C2C3C(=O)O (stereo not given) | 2.86% | 3.67% | 10.6% | -7.21% | 1.33%

SMILES | activity change, negative = inhibition [1] | activity change, negative = inhibition [2] | activity change, negative = inhibition [3] | activity change, negative = inhibition [4] | activity change, negative = inhibition [5]
C=CCC1=C[C@]2(OC)[C@H](C)[C@@H](c3ccc(OC)c(OC)c3)O[C@]2(OC)CC1=O | 2.44% | -2.56% | 7.04% | -15.1% | 2.4%
O=C(c1ccc2c(=O)nc3c(-c4ccccc4)n[nH]n3c2c1)N1CCN(c2ccccc2F)CC1 | -0.562% | 5.62% | -0.179% | 4.03% | 3.45%
O=C(NC1C[C@H]2CC[C@@H](C1)N2C(=O)c1ccn[nH]1)c1ccncc1 (stereo not given in full) | -0.153% | 0.046% | 1.44% | -3.25% | 2.6%
COCCCNC(=O)C1(C)Cn2nc(-c3ccccc3)cc2C(=O)N1c1cccc(SC)c1 (stereo not given) | -2.64% | -0.245% | 0.579% | -1.03% | -4.56%
COCCn1c2c(c(=O)n1-c1ccccc1)CCN(C(=O)c1cc3ccccc3n1C)C2 | -4.4% | 0.672% | -1.36% | -10.1% | -3.19%
CCN1C(=O)c2c(C(=O)NCCc3ccc(C)cc3)ncn2CC1(C)C(=O)NC1CCCC1 (stereo not given) | -3.82% | -10.3% | 2.98% | -5.39% | -0.674%
FC1(F)CN[C@H](c2nnc(C3CC3)o2)C1 | -7.74% | -7.24% | -4.96% | -17.4% | -11.9%
Cc1ccc(NC(=O)N2CCn3cccc3C2C)cc1F (stereo not given) | 1.95% | 0.444% | 11.7% | -0.092% | 9.26%
CC(CCc1ccccc1)NC(=O)CCn1ccn2nc3c(c2c1=O)CCCC3 (stereo not given) | -4.39% | -2.21% | -1.65% | -13.2% | 3.53%
Cc1cc(F)ccc1NS(=O)(=O)c1ccc2[nH]c3c(c2c1)CCCC3 | -5.09% | 2.21% | -4.21% | -30.3% | -0.434%
COc1ccc(-c2ccc3ncc(Nc4ccncc4)n3n2)cn1 | -7.58% | -5.45% | -5.7% | -10.8% | 3.3%
Cc1ccc(C)c(S(=O)(=O)c2nnn3c2nc(NCc2ccccc2)c2ccccc23)c1 | 0.597% | 2.04% | 4.01% | 4.19% | -1.34%
Cn1cnc(S(=O)(=O)N2CC(N(C3CCOCC3)S(C)(=O)=O)C2)c1 | 0.313% | 2.48% | 0.601% | 0.168% | 13.1%
COc1cc(/C=C/C(=O)O[C@H]2[C@@H]3C=CO[C@@H](O[C@@H]4O[C@H](CO)[C@@H](O)[C@H](O)[C@H]4O)[C@@H]3[C@@]3(CO)O[C@@H]23)ccc1O | 3.99% | 5.64% | 3.71% | -5.44% | 2.02%
Cc1cccc(N2C(=O)c3cc4sccc4n3CC2(C)C(=O)NC2CCCCC2C)c1C (stereo not given) | 0.462% | 0.73% | 2.97% | 5.79% | 0.029%
CCOc1ccc(N2C(=O)c3c(C(=O)OC)ncn3CC2(C)C(=O)NCCCOC(C)C)cc1 (stereo not given) | -1.3% | 0.43% | 6.42% | 2.67% | 4.59%
CCCOc1cc2oc(=O)cc(-c3ccccc3)c2cc1Cl | -9.64% | 2.44% | -4.52% | -22.4% | -9.85%
CCC1CN(Cc2nc(CCOC)no2)CCC(=O)N1Cc1ccccc1 (stereo not given) | -0.382% | -4.09% | -4.89% | 1.33% | -0.931%
CCCN1C(=O)c2cc(C(=O)NCCN(C)C)nn2CC1(C)C(=O)NC1CCCC1 (stereo not given) | 2.27% | 0% | -0.338% | 2.58% | 2.81%
CO/N=C(\C(=O)N[C@@H]1C(=O)N2C(C(=O)O)=C(CSc3nc(=O)c(O)nn3C)CSC12)c1csc(N)n1 (stereo not given in full) | -18.4% | 9.75% | 7.67% | -4.29% | 2.65%
CC(c1ccccc1)N1C(=O)c2ccc(-c3ccccc3)n2CC1(C)C(=O)NC1CCCCCCC1 (stereo not given) | 0.955% | 2.38% | 0.43% | -4.51% | 1.39%

SMILES | activity change, negative = inhibition [1] | activity change, negative = inhibition [2] | activity change, negative = inhibition [3] | activity change, negative = inhibition [4] | activity change, negative = inhibition [5]
CC1COc2c(N3CCN(C)CC3)c(F)cc3c(=O)c(C(=O)O)cn1c23 (stereo not given) | -1.68% | 9.05% | 5.5% | -3.49% | 4.38%
COc1ccc(CNc2nccc(CCC(F)(F)F)n2)cc1OC | -3.84% | -1.99% | -0.328% | -9.05% | 1.8%
O=C(/C=C/N1C[C@H]2C[C@@H]1CN2c1ccccn1)c1ccccc1O | 6.56% |  | 6.48% | -6.89% | -0.165%
CC(=O)c1ccc(Nc2nc3c(S(=O)(=O)c4ccccc4)nnn3c3ccccc23)cc1 | 0.132% | 0% | 2.29% | 7.35% | 1.85%
O=c1[nH]c2cccnc2n1CCc1ccccc1 | -21.7% | -18.9% | -8.65% | -25.3% | -20.1%
CN1C[C@H]2CNC[C@@]2(C(=O)NCc2ccccc2OCc2ccccc2)C1 | 2.48% | 0.707% | -4.72% | -1.18% | -4.18%
COc1ccc([C@@H](NC(=O)c2cc3ncccn3n2)C2CC(O)C2)cn1 (stereo not given in full) | -5.74% | -5.76% | -4.03% | -11.5% | -6.1%
CC(C)CCn1c(=O)c2ccc(C(=O)NC3CCCC3)cc2n2c(=O)[nH]nc12 | -2.96% | 0% | 4.83% | -1.78% | -5.49%
CC(C)CN1C(=O)c2cccn2CC1CN (stereo not given) | -2.45% | 0.732% | -3.73% | -5.42% | 11.9%
Cc1ccc(NC(=O)N2CCn3cccc3C2C)c(C)c1 (stereo not given) | -13.2% | -2.13% | -12.3% | -18% | -10.7%
Cn1c(=O)c2ccc(C(=O)NC3CCCCC3)cc2n2c(=O)n(CC(=O)Nc3ccccc3F)nc12 | 4.21% | 0% | 11.4% | -2.23% | 2.67%
COCC1CCN(C(=O)[C@@H]2CN(c3cnccn3)C[C@H]2COC)CC1 | -2.5% | -4.12% | 0.056% | -7.95% | -5%
O=C1c2cc3sccc3n2CC(C(=O)NC2CCCCCC2)(c2ccccc2)N1Cc1ccc2c(c1)OCO2 (stereo not given) | 3.45% | 0% | 1.83% | 0.849% | -2.43%
c1ccc(CN2CCC[C@H]2c2nc(-c3ccc(N4CCOCC4)nc3)no2)cc1 | -4.08% | 1.45% | 0.834% | 1% | -0.731%
CCS(=O)(=O)N1CCC(Oc2cccc(C(=O)NCc3ccccn3)c2)CC1 | -1.52% | -4.21% | -2.84% | -12.2% | -4.99%
CC1(C(=O)NCc2ccccc2)Cn2c(cc3ccccc32)C(=O)N1Cc1ccccc1F (stereo not given) | 0.547% | 1.34% | 0.593% | -5.39% | -0.588%
COc1ccccc1CN1CCC(N2CC3CCCN3C2=O)CC1 (stereo not given) | -4.26% | -6.13% | -7.32% | -12.7% | 2.76%
Cc1noc(C)c1[S+](=O)([O-])N(C)Cc1ccc(-c2ccccc2)cc1 | -4.79% | -4.28% | -0.096% | -7.09% | -21.4%
O=C1c2cc3occc3n2CC(C(=O)NC2CCCCCCC2)(c2ccccc2)N1Cc1cccc(F)c1 (stereo not given) | 0.266% | 3.85% | -1.25% | -1.82% | -5.69%
COc1ccc(-c2n[nH]n3c2nc(=O)c2ccc(C(=O)NCc4cccnc4)cc23)cc1 | -3.86% | 2.51% | -1.13% | 0.668% | -0.251%
